# The source gives no read counts; variants with many changes may rest on few reads.
# B1: CPEB3 Ribozyme (parent)
# chain: UAACAGGGGGCCACAGCAGAAGCGUUCACGUCGCAGCCCCUGUCAGAUUCUGGUGAAUCUGCGAAUUCUGCUGUAUAUCUC
# Variants of: B1
# Assay: self-cleavage, relative activity (ratio to wild type); higher = more cleavage; in vitro, sequencing
# Method in brief: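 Barcoded CPEB3 ribozyme mutants, produced by rounds of error-prone PCR, self-cleaved while being transcribed with T7 RNA polymerase for 5 hours at 37°C and during a subsequent 15 min DNase I step before EDTA was added. Sequencing of template-switched cDNA on Illumina gave cleaved and total reads, and DNA sequencing assigned barcodes to variants. Each variant's relative activity is its cleaved/total read fraction divided by the unmutated ribozyme's fraction, averaged across three batches. A variant needed a minimum of 5 reads.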
row,Variant,self-cleavage
1,A13U A45G U66C,0.26
2,A13U A45G U67A U76C,0.73
3,A13U A45U C62U,0.17
4,A13U A45U G52A G61C,0.18
5,A13U A45U U48A A56G U67A,0.31
6,A13U A45U U48A A57G U60C,0.07
7,A13U A45U U58C U67C,0.17
8,A13U A45U U60C U67C,0.22
9,A13U A45U U69C,0.25
10,A13U A45U U78A,0.6
11,A13U A47C U51G A57G,0.21
12,A13U A47G A64G,0.9
13,A13U A47G G70A A77G,0.67
14,A13U A47G U48A A56C U72C U76A,0.1
15,A13U A47G U54G U76C,1.12
16,A13U A47G U58C,1.23
17,A13U A47G U69A U72C,0.49
18,A13U A47G U74G,1.32
19,A13U A56G A64G,1.17
20,A13U A56G A64U,0.4
21,A13U A56G U58C C71U,0.25
22,A13U A56G U60C,0.48
23,A13U A56G U60C C79G,0.74
24,A13U A56G U67A,0.58

row,Variant,self-cleavage
1,A13U A56G U72C,1.11
2,A13U A56G U72C U74A,1.17
3,A13U A56U A64G,0.2
4,A13U A56U U58C A64C,0.16
5,A13U A56U U60A A75G U80C,0.37
6,A13U A57G A64G,1.21
7,A13U A57G U58A,0.28
8,A13U A57G U69A,0.71
9,A13U A57G U69C,0.49
10,A13U A57G U76A,1.15
11,A13U A57G U78A,1.1
12,A13U A64C A65U,0.22
13,A13U A64G G70A,0.26
14,A13U A64G U66C,0.2
15,A13U A64G U67C,0.32
16,A13U A64G U69C,0.28
17,A13U A64G U78C,0.94
18,A13U A64U U78C,0.43
19,A13U A65G G70C U80A,0.21
20,A13U A65G U66C U76A,0.42
21,A13U A65G U78C,0.55
22,A13U A75C U78A,1.26
23,A13U A75G U78C,1.18
24,A13U C14A A18U A56C U67C,0.09

row,Variant,self-cleavage
1,A13U C14A A28G C59A C68A,0.08
2,A13U C14A A64G,0.86
3,A13U C14A G33C U48C A57G U66A U74C,0.04
4,A13U C14A U54C U72A A75G,1.12
5,A13U C14A U60C U67C,0.09
6,A13U C14G A21G A47G,0.09
7,A13U C14U A18C G61A U69A A77G,0.17
8,A13U C14U A28G A75C,0.79
9,A13U C14U C38G C40A U58C A75U,0.05
10,A13U C14U C50U U66C,0.3
11,A13U C14U U54C C62U,0.08
12,A13U C17A U31C U60A,0.12
13,A13U C17G U25C U49A U78C,0.05
14,A13U C17G U26C U48C,0.13
15,A13U C17U A21G U25A U74G,0.46
16,A13U C17U U51C U60C C62U A75U,0.12
17,A13U C23A C27A C39A,0.13
18,A13U C23A C38G U51C A77G,0.04
19,A13U C23G A47G U58C U80C,0.04
20,A13U C23G A57G,0.16
21,A13U C23G A57U,0.1
22,A13U C23G G30U U60A G63A A64G,0.03
23,A13U C23U C40A U49A G63C U78C,0.06
24,A13U C23U G30C U41A C44A U60C,0.06

row,Variant,self-cleavage
1,A13U C23U U66C U72A,0.05
2,A13U C27A U54C U58C A77U,0.05
3,A13U C27G U31A A35U U48A,0.05
4,A13U C27U A28G U41C A57G U60C A75U,0.05
5,A13U C27U C39U A56G,0.1
6,A13U C29A A45G U60C U72C U80A,0.3
7,A13U C29A A57G A64G U66C A77U,0.12
8,A13U C29A U43A,0.68
9,A13U C29G C37U A64G A77G,0.03
10,A13U C29U A35G C38A U51G A77U,0.54
11,A13U C29U C40U,0.21
12,A13U C29U U31C U49A U69A,0.23
13,A13U C29U U41A U49C U58C U67A A75U,0.05
14,A13U C29U U41C U43C A56U U72C,0.05
15,A13U C29U U41C U74A,1.01
16,A13U C29U U43C U48A A56G,0.08
17,A13U C29U U69A U72A,0.08
18,A13U C32G A65G,0.08
19,A13U C32U U72G,0.17
20,A13U C34U C50U U76C,0.28
21,A13U C34U U43C U49C,0.11
22,A13U C34U U49C,0.19
23,A13U C37A U54C U69C,0.1
24,A13U C37A U60C,0.15

row,Variant,self-cleavage
1,A13U C37A U69A,0.2
2,A13U C37G G70C C71U,0.12
3,A13U C37U U49C C59G,0.05
4,A13U C37U U60C,0.28
5,A13U C38A U41A A56G,0.16
6,A13U C38U G61A U72C C79A,0.87
7,A13U C38U U41G U60A U72G,0.04
8,A13U C38U U48C,0.25
9,A13U C39A A56G U72C,0.17
10,A13U C39A A57G U80C,0.21
11,A13U C39A U49A U60C U66C U76A,0.06
12,A13U C39U G73A U74C U80C,1.24
13,A13U C39U U72A U76A,0.79
14,A13U C40A U43C U48A U69A A77G,0.06
15,A13U C40U A45G U60A,0.43
16,A13U C40U A45G U60C,1.18
17,A13U C40U G52A U67G U69A,0.11
18,A13U C40U G73A,0.5
19,A13U C40U U51A U78A,1.13
20,A13U C40U U67A,0.46
21,A13U C40U U69A,0.3
22,A13U C44U A47G,0.28
23,A13U C44U U54A U80A,0.41
24,A13U C44U U60A,0.44

row,Variant,self-cleavage
1,A13U C50U U69C,0.45
2,A13U C62U A65G,0.32
3,A13U G16A A20G,0.42
4,A13U G16A A35G U43A A56U U69C,0.16
5,A13U G16A C37A U48C,0.07
6,A13U G16A G33A U51C,0.04
7,A13U G16C A20U G33A U60C U69A,0.04
8,A13U G16C A28G A35G,0.14
9,A13U G16C A65U U69C U80C,0.05
10,A13U G16U U43C G52U A56G U80C,0.46
11,A13U G19A A56G U69A U72C,0.11
12,A13U G19A G52U,0.18
13,A13U G19A G52U A57G,0.3
14,A13U G19A U51A,0.14
15,A13U G19C U26A A47U U51C A56G,0.06
16,A13U G19U U25C U54A,0.07
17,A13U G19U U72A,0.2
18,A13U G19U U78C,0.13
19,A13U G22A G42A U43C U67G U78C,0.14
20,A13U G22A U41G A47G,0.09
21,A13U G22A U51C,0.15
22,A13U G22U A47G U51G,0.21
23,A13U G24A A28C C34A U48C,0.13
24,A13U G24A A28G U69A,0.06

row,Variant,self-cleavage
1,A13U G24A A56G U80C,0.23
2,A13U G24A C68G U72C,0.08
3,A13U G24A G30A U51A,0.17
4,A13U G24A U51C A65G A77G,0.07
5,A13U G24A U54C,0.26
6,A13U G24A U69A A75U,0.12
7,A13U G24C C29U U31C U48C A57G,0.05
8,A13U G24C C38U U41A U48C U69C,0.05
9,A13U G24U U49C,0.15
10,A13U G30A C50A C62G,0.12
11,A13U G30A U31C,0.2
12,A13U G30A U69A,0
13,A13U G30U U43C U54C U60A,0.04
14,A13U G33A A35G A45U A56U U66A,0.05
15,A13U G33A A45G,0.1
16,A13U G33A A45U A56C A57G U67A,0.14
17,A13U G33U A45C A56G U72C A75G,0.08
18,A13U G33U U41A A64U,0.12
19,A13U G36A U49C U60A A77U,0.06
20,A13U G36A U67C U76C,0.06
21,A13U G36C U41A U54A U67C,0.06
22,A13U G36C U78C,0.07
23,A13U G36U A45G U60A,0.04
